Tested on: NaV2 sodium channel
Conditions: for EC50: read-out: EC50, Electric field stimulation, average of two experiments, lowest recorded value for use-dependent blockers; for EC50 / dependence of block on time window of response (shift of dose-response curve): CHO NaV2; for dependence of block on time window of response (shift of dose-response curve): 20 Hz stimulus, 1 second vs 3 seconds

| SMILES | EC50 [µM] | dependence of block on time window of response (shift of dose-response curve) | inhibition of response induced by field strengths up to 85 V/cm | response of spiked wells |
| --- | --- | --- | --- | --- |
| COc1cc(CNC(=O)CCCC/C=C/C(C)C)ccc1O [capsaicin] | 1.6 | – | – | – |
| CCCCN1CCCCC1C(=O)Nc1c(C)cccc1C (centres unmarked) [Bupivacaine] | 1 | smaller amount of shift | – | – |
| CCN(CC)CC(=O)Nc1c(C)cccc1C [Lidocaine] | 30 | smaller amount of shift | – | – |
| O=C1NC(=O)C(c2ccccc2)(c2ccccc2)N1 [Phenytoin] | 24 | – | – | – |
| NC1=N[C@H](O)[C@H]2[C@H]3O[C@]4(O)O[C@@H]([C@@H](O)[C@@]2(N1)[C@@H]4O)[C@]3(O)CO [TTX, tetrodotoxin] | – | – | could be inhibited | little or no detectable response |
| CCCCNc1ccc(C(=O)OCCN(C)C)cc1 [tetracaine] | 0.19 | an order of magnitude stronger at 3 seconds than at 1 second | – | – |
| N=C(N)NC(=O)c1nc(Cl)c(N)nc1N [amiloride] | > 1000 | – | – | – |

Reference: patent US7615356B2, “Ion channel assay methods” (Vertex Pharmaceuticals (San Diego) LLC, priority 2000, dated 2009)
